In the supplement of paper PMC12632987:
Whole data set: some 1,800 sequences, median “median log2 fold change of GCK-ALFA target abundance (FLAG IP / Myc IP barcode read proportion)” near 0.14, cut for the lowest 2% near -0.84. Some of the results follow.

B1: traf2_out_17_162_1534 (protein)
chain: SETEEKLKKLKEKLKEIEKRLEELEKKSKELEKKSKEELTDLLVEASELRREALKLAEELKKLAKETGSEEAKKLAEKAEEVAERLQRIANEIYKELEKK
B2: traf2_out_11_169_863 (protein)
chain: EQKKFNRELIDFALEVNDEAKEKLKKFALELAKEEGLDVEEVKKIFEENKNKSLSAIASALIKYFESKGKKEAAEKILEKYDELKEEINKKVSAKMKELK
B3: traf2_out_20_3_2056 (protein)
chain: SELEEEIEKLEKELEAKLKELEKLLPPEEAKELKEAWKKVKEAKKEGLEEYLIAVSELRRLLLELSERARARGDEETAKLLEEAAELAGRIAHLIYLKIE
B4: traf2_out_16_104_1422 (protein)
chain: SEEKEKEFEEIIERLEEIAERAQRIANELMKLYEKASPEKRTALSDALVKASELRREALEAAQQAKEDKENGGDLEERRKRLEELEKRLEELEKELEELK
B5: traf2_out_5_63_2359 (protein)
chain: SEREELTALARRADKLVRELLAAAKAGDEERVEALLEEAVADPELARLVLGILKGEAKYYELLGDKPEEAKIAKELAERLEARMAARAAEAAAAAAAAAA
B6: traf2_out_17_178_1690 (protein)
chain: SKEEYRKKISEATDELIDLTVATGTALLAAARAAGTVSPEELAALEAARRAGSNRTFRALAERIVPKLPSAAAAAARLAAFDAEAAALNKEIAEAYEKYE
B7: traf2_out_17_162_1561 (protein)
chain: SPLEEEWEELLRRLEELERRVEELEKRLENLENLSPEEIRDLLVEASEVKREALELAERARELRPEIGEEEAEELIERAEEIAERAQRIANKLYEALLKK
B8: traf2_out_20_38_2033 (protein)
chain: SEEEEEKRRLEEAIEVANEAYDKYSARVAAWKAAGKTVEEIAEEAKEEVRRLLTEAGLEEEAEILIEDIDRALSSPEAERLIVRILARAEALVYQKKVNE

Biological target: T1, TRAF2, Q12933
T1 chain: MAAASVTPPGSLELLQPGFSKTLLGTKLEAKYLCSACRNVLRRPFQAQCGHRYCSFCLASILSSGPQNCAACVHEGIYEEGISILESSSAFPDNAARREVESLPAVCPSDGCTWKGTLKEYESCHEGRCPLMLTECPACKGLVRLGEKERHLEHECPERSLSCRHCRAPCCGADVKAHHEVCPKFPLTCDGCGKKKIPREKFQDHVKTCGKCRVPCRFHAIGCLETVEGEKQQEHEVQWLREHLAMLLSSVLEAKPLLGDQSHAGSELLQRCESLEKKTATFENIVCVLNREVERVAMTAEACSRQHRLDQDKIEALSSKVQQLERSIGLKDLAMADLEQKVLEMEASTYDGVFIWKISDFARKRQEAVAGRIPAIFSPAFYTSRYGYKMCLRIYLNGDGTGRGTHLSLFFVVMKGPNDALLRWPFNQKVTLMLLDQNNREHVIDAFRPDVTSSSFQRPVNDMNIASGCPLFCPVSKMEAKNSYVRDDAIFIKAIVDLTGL
Test: median log2 fold change of GCK-ALFA target abundance (FLAG IP / Myc IP barcode read proportion) (log2 ratio); each designed protein is fused to an ALFA-tag nanobody in HEK293 cells to bring the named protein to FLAG-tagged glucokinase (GCK); Myc marks an untargeted standard; higher = target protein stabilised (more abundant)
Settings: target protein: 3xFLAG-MCP-GCK-ALFA reporter; HEK293 landing pad (RPLP)
In short: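 Binders fused to an ALFA nanobody were recombined as a library into HEK293 landing-pad cells, which were induced with 2 μg mL^−1 doxycycline and then transfected to express a FLAG-tagged target and a Myc-tagged standard. After 48 h, circular RNA barcodes recovered by anti-FLAG and anti-Myc immunoprecipitation of lysates were reverse transcribed, amplified and sequenced. Each binder's target abundance is the median log2 ratio of FLAG to Myc barcode read proportions, from barcodes present at ≥10^−7 in both replicates, binders carrying ≥3 barcodes per replicate, a 10^−6 pseudocount and pooled replicates.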

Row | Binder | median log2 fold change
1 | B1 | 0.0675
2 | B2 | -0.614
3 | B3 | 0.426
4 | B4 | 0.0771
5 | B5 | -0.398
6 | B6 | 0.173
7 | B7 | 0.205
8 | B8 | -0.971
